# Several values for one entry are separate records, joined by “and”; a condition that tells them apart may be missing. Equal entries are not always repeated. In all, about 48,000 compounds went through this assay and about 1,200 (2.5%) were called active. Inconclusive results (about 2%) are left out.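 How the source made its calls: active means activation of at least 60% and not above a set upper limit (about 1 call in 100 departs from these limits); inconclusive means activation of 40% to 60%, or above that upper limit; inactive means activation under 40%.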 Some of the results follow.
# Biological target: Probable G-protein coupled receptor 32 (Homo sapiens) (UniProt O75388)
# UniProt O75388, sequence (O75388 whole entry, looked up): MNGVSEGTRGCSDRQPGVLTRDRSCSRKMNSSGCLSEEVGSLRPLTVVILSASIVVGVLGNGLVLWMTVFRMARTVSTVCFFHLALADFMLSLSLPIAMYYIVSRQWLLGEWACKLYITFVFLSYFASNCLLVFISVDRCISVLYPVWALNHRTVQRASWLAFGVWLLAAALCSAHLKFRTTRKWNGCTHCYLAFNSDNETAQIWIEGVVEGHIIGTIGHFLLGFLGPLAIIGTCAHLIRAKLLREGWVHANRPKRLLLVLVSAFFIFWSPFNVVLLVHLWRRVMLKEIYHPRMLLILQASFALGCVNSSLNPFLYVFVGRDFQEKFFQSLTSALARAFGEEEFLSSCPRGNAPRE
# Assay: qHTS for Agonists of Human Resolvin D1 Receptor DRV1; further: 0% is about no effect
# Details: CHO-K1 GPR32 beta-arrestin PathHunter luminescence, 90 min; at 76.9 µM; hits give high values; zero percent set by DMSO-only wells
# Outline: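 GPR32 activation in stably transfected CHO-K1 cells, detected as beta-arrestin recruitment by enzyme-fragment complementation. Compound exposure: 90 min, 37 °C.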
row,SMILES,activation
1,CC(=O)Nc1ccc(-c2nnc3n(CC(C)C)c(=O)c4ccccc4n23)cc1,inactive: 20.9%
2,COc1ccccc1NC(=O)Cn1c(SCC(=O)NCc2ccccc2)nc2ccccc21,inactive: -3.87%
3,Cc1ccc(-c2cc(-c3coc4ccccc4c3=O)c3c(n2)-c2cc(Cl)ccc2OC3)cc1,inactive: 0.451%
4,CCc1ccc(OCC2c3cc(OC)c(OC)cc3CCN2C(=O)Cc2ccc(OC)c(OC)c2)cc1 (centres undefined),inactive: -35.1%
5,COc1cc2c(cc1NC(=O)C(C)Oc1ccc(Cl)cc1Cl)oc1ccccc12 (centres undefined),inactive: -0.319%
6,COc1ccc(NC(=O)c2oc3ccc4c(c3c2C)C(=O)CC(C)(C)O4)cc1OC,inactive: -3.27%
7,COc1ccc(NC(=O)CCCN2C(=O)C(c3ccccc3)Oc3cccnc32)cc1OC (centres undefined),active: 76.2%
8,Cc1ccc(CCNC(=O)CCCn2nc(C)c3c(C)n(-c4ccc(C)cc4)nc3c2=O)cc1,inactive: -10.8%
9,Cc1ccc(OCC(=O)OCc2cc(=O)n3nc(C4CCCCC4)sc3n2)cc1,inactive: -9.26%
10,CCN(c1ncnc2c1c(-c1ccccc1)cn2-c1ccccc1)C1CCCCC1,inactive: -24.9%
11,Cc1cc(N2CCN(C)CC2)nc2ccc(NC(=O)Nc3ccccc3Cl)cc12,inactive: 21.7%
12,CSCCC(NC(=O)C1CCCCC1)C(=O)Nc1ccc(F)c(Cl)c1 (centres undefined),inactive: -17.3%
13,CCNc1c(NC(=O)c2ccccc2OCC)c(=O)oc2ccccc12,inactive: 1.71%
14,COc1ccc(OC)c(CCNC(=O)c2sc3nc4n(c(=O)c3c2C)CCCC4)c1,inactive: -6.25%
15,CCOc1ccccc1NS(=O)(=O)c1c(C(=O)OC)sc2cccc(F)c12,inactive: -15.1%
16,O=c1[nH]c2cc(C(F)(F)F)ccc2n1-c1cc(C(F)(F)F)ccc1O,inactive: -1.15%
17,COc1ccc(N(C(=O)c2ccccc2C)S(=O)(=O)c2ccc3c(c2)n(C)c(=O)n3C)cc1,inactive: 1.87%
18,Cc1ccc(N2C(=O)[C@@H]3CSC(c4ccc(C(F)(F)F)cc4)N3C2=O)cc1 (some centres undefined),inactive: 15.5%
19,COc1cccc(-c2nc(SC(C(C)=O)C(=O)N(C)C)c3c(=O)n(C)c(=O)n(C)c3n2)c1 (centres undefined),inactive: -10.1%
20,CCOC(=O)C1=C(CNCc2ccccc2)NC(=O)NC1c1ccc(C)cc1 (centres undefined),inactive: -8.63%
21,Cc1ccc(S(=O)(=O)N2CCCc3cc(NC(=O)c4ccc(C(F)(F)F)cc4)ccc32)cc1,inactive: -5.36%
22,COc1ccc(-n2c(=O)c3c(C)c(C)sc3n(Cc3ccc(F)cc3)c2=O)c(OC)c1,inactive: -12.2%
23,CC1(c2ccccc2)OC(C(=O)O)=CC1=O (centres undefined),inactive: -5.35%
24,O=C(COc1ccccc1)NCCc1csc(-c2ccc(F)cc2)n1,active: 120%
25,CN(C(=O)Cn1c(=O)n(Cc2ccc(C(=O)NCc3ccc4c(c3)OCO4)cc2)c(=O)c2ccccc21)c1ccccc1,inactive: -0.176%
26,O=C(Cn1cc(S(=O)(=O)Cc2cccc(Cl)c2)c2ccccc21)Nc1ccc(F)c(Cl)c1,inactive: 21%
27,Cn1ccnc1,inactive: -9.85%

row,SMILES,activation
1,CCCCOc1ccc(Cn2c(=O)oc3ccccc32)cc1,inactive: 26%
2,Cc1cccc(C)c1NC(=O)CN(CC(=O)O)CC(=O)O,inactive: -23.2%
3,COc1ccc(CNC(=O)CCc2nc3cccnc3n2Cc2ccc(OC)cc2)cc1,inactive: -4.4%
4,Cc1ccccc1Cc1c(C)nc2c(-c3ccccc3)c(C)[nH]n2c1=O,inactive: -51.5%
5,Cc1ccc(NC(=O)Cn2c(=O)n(CCc3ccccc3)c(=O)c3sc4ccccc4c32)cc1C,inactive: 15.2%
6,CCOc1ccc(OCC(=O)NCCS(=O)(=O)N2CCN(c3ccc(OC)cc3)CC2)cc1,inactive: -13.9%
7,COC(=O)c1ccc(NC(=O)c2nn(C)c3c2COc2ccccc2-3)cc1,inactive: -3.3%
8,COc1ccccc1CNS(=O)(=O)c1cc(-c2cc(C)no2)ccc1C,inactive: -15.4%
9,O=C(NCc1cccc(Cl)c1)c1oc(=O)c2ccccc2c1-c1ccccc1,inactive: -2.57%
10,Cc1nn(CCCC(=O)NCCc2ccc(Cl)cc2)c(=O)c2nn(-c3ccccc3)c(C)c12,inactive: -1.59%
11,O=C(NCc1ccccc1F)c1cccc(NC(=O)N2CCSc3ncccc32)c1,inactive: 1.74%
12,Cc1ccc(-c2cc(NC(=O)COc3c(C)cc(C)cc3C)on2)cc1,inactive: -2.37%
13,COc1ccc(C2CC(=O)c3cc(-c4nc(-c5cccc([N+](=O)[O-])c5)cs4)c(=O)n(-c4ccccc4C)c3C2)cc1 (centres undefined),inactive: -0.143%
14,CCn1c(=O)c(C(=O)Nc2cc(OC)c(OC)c(OC)c2)nc2ccccc21,inactive: 9.6%
15,CCN(CC)CCOC(=O)c1ccc(N)cc1,inactive: 2.9% and inactive: -5.44%
16,CCc1cccc(C)c1NC(=O)C(CC)Sc1nc2ccncc2[nH]1 (centres undefined),inactive: -2.54%
17,CCOc1cccc2sc(NC(=O)c3ccc(S(=O)(=O)N4CCc5ccccc54)cc3)nc12,inactive: -13.7%
18,COc1ccc(CN2CCN(c3ncnc4sc5c(c34)CCCC5)CC2)cc1F,inactive: 4.75%
19,CSc1ncc(C(=O)NCc2ccccc2Cl)c(C(F)(F)F)n1,inactive: -0.121%
20,Cc1ccc(NC(=O)N2CCc3c(sc4c3CCCC4)C2c2ccccc2)cc1F (centres undefined),inactive: -9.07%
21,CCCCc1nn2c(=O)cc(COC(=O)c3ccc(NC(=O)c4cccc(OC)c4)cc3)nc2s1,inactive: -0.349%
22,CCCN1CCN(CC2=C(C(=O)OCC)C(c3cccc(OC)c3OC)NC(=O)N2)CC1 (centres undefined),inactive: -7.9%
23,CCOC(=O)CSc1nc2cc3c(cc2c(=O)n1CCCCCC(=O)NCc1ccc2c(c1)OCO2)OCO3,inactive: -20.6%
24,CCCCN(C)C(=O)c1ccc2c(c1)N(Cc1cccc(Cl)c1)C(=O)c1ccccc1S2=O (centres undefined),inactive: -23.8%
25,Cc1ccc2c(CC(=O)Nc3ccc(S(=O)(=O)Nc4nc(C)cc(C)n4)cc3)coc2c1,inactive: -8.91%
26,Cc1cc(C)cc(NC(=O)N2CCN(C)c3ncccc32)c1,inactive: -15%
27,Cn1c(=O)cc(OCC(=O)N2CCN(c3ccccc3F)CC2)c2ccccc21,inactive: -3.75%
